The list shows a part of the results.
B1: chr6:43012266:43012370:-|3pUTR|ENSG00000124733|unk|FALSE|bound_elsewhere (ssRNA)
RNA: GGGAGUUCUACAGUCCGACGAUCGAGACCCACUUUAUUCAGUUCUGUACAUAUGGGGACAUCGGUCCAAGCCCAACCCACCUUAGCAUGUAUCACUCUGUGGAGAAUAAAGCACCCUAUGUACACAGCCAAAAGCCGCACUGCCAACAGAGGAUUGAGCAUCA
B2: chr17:65014400:65014519:-|CDS|ENSG00000120063|unk|FALSE|unique (ssRNA)
RNA: GGGAGUUCUACAGUCCGACGAUCAAACAAGACAGACUUGCUUGAGGAGAAGGUGCAAAUUGUGAGCAUCAAAGACUAUUUCCUAGAAUUUGAAGGGGAUCCCCACUGCUUAAGAGACGUCCAAAAAUUCCUGGUGGAAUGUUUCAACAGAGGAUUGAGCAUCA
B3: chr1:17068045:17068226:-|3pUTR|ENSG00000117115|msi1|FALSE|unique (ssRNA)
RNA: GGGAGUUCUACAGUCCGACGAUCCUCCUUCCACUGCCUUGACUUUCUUCCUUUUUAUUCCUGGUGCCAUCUGUCCAGGCAGCUAGACAAGAACUUGUUCGCCAGCAGCCAGAUUCAGGCCUUCCCAGGGGCAUAAUAAGUGACCAACAGAGGAUUGAGCAUCA
B4: chr1:93361585:93361687:+|3pUTR|ENSG00000117505|unk|FALSE|unique (ssRNA)
RNA: GGGAGUUCUACAGUCCGACGAUCUUUAACUUGUAGUUAUAGUUUACUUAUUGUUUUUAGAAUUACUUUUACAUUUUCCCAACUAGAUGGCCUAGAGUCCAACAUUACCUUUUGAGAUGACAUUAUUGUCUCCAUAAUUGAGUGCAACAGAGGAUUGAGCAUCA
B5: ENSG00000107863:be:win_5601|CDS|ENSG00000107863|bound_else_gene|NA|bound_elsewhere_windowed (ssRNA)
RNA: GGGAGUUCUACAGUCCGACGAUCAGGAGAAAUCGGAGAUCCCCAGACAGAGAACCCAAGCACACGAGAAAUAGCCACGACCGACACACCUUUGUCUCUUCAUUGCAACACAGGCAGUUCUUCCAGCACCUUGGCUUCAACAAACAACAGAGGAUUGAGCAUCA
B6: chr19:1925605:1925706:+|3pUTR|ENSG00000227500|msi1|FALSE|unique (ssRNA)
RNA: GGGAGUUCUACAGUCCGACGAUCUUUGGACACCCCAGGCUGCCACCCCUCCCCACCCGUUCACCCCCAGGAUGCUGUUGCUGUAGGACGCCUGCUGCCCUGGAGCCCUCCCCAGGAUGUGAGCCAGUCCCCUCGCUGGUACGGCAACAGAGGAUUGAGCAUCA
B7: chr4:137519872:137519973:-|3pUTR|ENSG00000189184|unk|FALSE|unique (ssRNA)
RNA: GGGAGUUCUACAGUCCGACGAUCAACUAUUCAUUUUUAGCUUUUGUCUCCAGUGCAUGAUCUCAUAUUUUUGCUUUUAUUUUUAGUAUAAGAACAUUUAUAAAAUCAUAUUUUUGUUACUGCAAUUGUUUUAUUUGUUGUGUGCAACAGAGGAUUGAGCAUCA
B8: chr2:159349074:159349175:-|CDS|ENSG00000123636|unk|FALSE|unique (ssRNA)
RNA: GGGAGUUCUACAGUCCGACGAUCUGGUGUGGUUACUUCUAAUAUUCCAUUUACAUCAUCUGUACCUAGUCUAGGAUCGGGGUUAGGGUUAUCAGAAGGAAAUGGUAAUUCAUUCUUGACUUCCAAUGUUGCUUCAAGUAAAAGCAACAGAGGAUUGAGCAUCA
B9: chr8:27733518:27733645:-|3pUTR|ENSG00000147419|unk|FALSE|unique (ssRNA)
RNA: GGGAGUUCUACAGUCCGACGAUCGACCUUUUGAUUUUGAAGCAGACUAAAAUCUGACCAGACCACAAUGAAAAGUAUAAAAUUAGAAACUUAAAUUCCAAGCUAAAUUUCAGCUUUGACCCACCUAACUCCAGUGAAUAGGUGCAACAGAGGAUUGAGCAUCA
B10: chr3:152462637:152462738:+|3pUTR|ENSG00000152601|msi1|total|mutant (ssRNA)
RNA: GGGAGUUCUACAGUCCGACGAUCGAACAACAUUGUCUUUCUUUUCCCGCACAGAGUUAUGCAUUCAAAGAUGCAUACCCCGUCCGUUUCCUAUAUAUUCAUGCCAUCUUGAAAAGACAGACUAUGGUGUAACCAUGAUUCUAUCAACAGAGGAUUGAGCAUCA
B11: ENSG00000198589:be:win_2201|CDS|ENSG00000198589|bound_else_gene|NA|bound_elsewhere_windowed (ssRNA)
RNA: GGGAGUUCUACAGUCCGACGAUCGAAUCAGGGUACAAGCUCUUAAGGCAAUGGGUUAUUUUUUAAAACAUCUGGCCCCAAAGAGGAAAGCAGAAGUCAUGCUUGGACAUGGAUUGUUUUCAUUGCUAGCUGAAAGGCUCAUGCCAACAGAGGAUUGAGCAUCA
B12: chr5:56881662:56881777:+|CDS|ENSG00000095015|unk|FALSE|unique (ssRNA)
RNA: GGGAGUUCUACAGUCCGACGAUCGAUCUACUUGAGUUCUGCAAGAAUGGUUACUACAGUACCCCAUGUGUUUUCAAAACUGUUAGAAAUGCUGAGUGUUUCCAGUUCCACUCACUUCACCAGGAUGCGUCGCCGUUUGAUGGCCAACAGAGGAUUGAGCAUCA
B13: chr4:138171397:138171528:-|3pUTR|ENSG00000151012|msi1|FALSE|unique (ssRNA)
RNA: GGGAGUUCUACAGUCCGACGAUCAUUAUGGCAAAGAGGAGAGAAAGAAAUUUAUUUUACAUUGACAUUGCAUUGCUUCCCCUUAGAUACCAAUUUAGAUAACAAACACUCAUGCUUUAAUGGAUUAUACCCAGAGCACUUUGACAACAGAGGAUUGAGCAUCA
B14: chr22:46316300:46316401:+|CDS|ENSG00000075218|unk|total|mutant (ssRNA)
RNA: GGGAGUUCUACAGUCCGACGAUCGGCGGCCAGUGGCUGAACUCCAGUUGCGCUUGGUCAGAAUCUUCUCAAUUGAAUAAGACCCGAAGUAUCAGACGGCGAGAUUCCUGUCUAAAUUCCAAGACAAAGGUUAUGCCUACUCCUCAACAGAGGAUUGAGCAUCA
B15: chr2:128192346:128192447:+|3pUTR|ENSG00000136731|msi1|total|mutant (ssRNA)
RNA: GGGAGUUCUACAGUCCGACGAUCAGAAAAUGAUGUUACCACUAAAAUAUUUUCUCCAAGAAGGCAUACUGUAACAGAAAAGACCGGUAAGAUAUUUUUUUCCCAAGAAGUAAGAAUUGAUUGUGCUGAAUGUUCAAACUCUGGCAACAGAGGAUUGAGCAUCA
B16: chr3:152464585:152464701:+|3pUTR|ENSG00000152601|msi1|total|mutant (ssRNA)
RNA: GGGAGUUCUACAGUCCGACGAUCAUAUUUUUGAAAUCCCUGAGUAUCAGGCCUUGUUAUAAAUAAGCUGCAUAAUCAAUAAACCGAACAAGGGACUUUUUGUUGAUAAUCCAAAUACUCAAAGUUUACGUAAUGAAAAUUAUACAACAGAGGAUUGAGCAUCA
B17: chr15:22826343:22826444:+|3pUTR|ENSG00000170113|msi1|total|mutant (ssRNA)
RNA: GGGAGUUCUACAGUCCGACGAUCAAAGUCCAUUACUCUUUUUAUUGGCUCUUGCAGGUUUUGUGUUUUAUCAUCAGUGCUUUCCGAAAUGCAGGCCUUAACUUACUGAACUGAACUUUCUGAAAACGUAAUGCCGCAGUAUCACAACAGAGGAUUGAGCAUCA
B18: chrX:153456492:153456651:-|CDS|ENSG00000213397|control|control|control (ssRNA)
RNA: GGGAGUUCUACAGUCCGACGAUCAUGGAGCACUUCGAGGACACCAGGGAGAAGAACGAGGCCUUGCUGGGGGAGCUCUUCUCUAGCCCCCACCUGCAGAUGCUCCUGAAUCCAGAGUGCGACCCGUGGCCCCUGGACAUGCAGCAACAGAGGAUUGAGCAUCA
B19: ENSG00000167767:stop:overlap|stop_codon|ENSG00000167767|stop_codon|NA|stop_codon (ssRNA)
RNA: GGGAGUUCUACAGUCCGACGAUCGCGCUGUGCAGUCCAGGUGCAAAACCGCCCCUUCCCUCCCCUACCCCUUAUGUUCCCUGUAGCUGCCUCCAGAUCAGGCCUCUCCAAGGCCCCCUCCCGAAAGAAGAAGGGCAGCAAAGGCAACAGAGGAUUGAGCAUCA
B20: chr19:14961309:14961997:-|three_prime_utr|ENSG00000105143|control|control|control (ssRNA)
RNA: GGGAGUUCUACAGUCCGACGAUCGAUUCACUUACCCACUCACCAACUCAUUCAUUCAUGUCUUUCUGGGAUGAUUUCAUCACUAGUUGACUUCCUUGUUCAUCUGUUCAUUCAUUCAUUCUUCUAUGCAUUGGUUAGUUCAUGCAACAGAGGAUUGAGCAUCA
B21: chr8:79641408:79641533:+|CDS|ENSG00000104435|unk|total|mutant (ssRNA)
RNA: GGGAGUUCUACAGUCCGACGAUCCCAGGCUUUUGAGCUGAUCUUGAAGCCACCAUCUCCUAUCUCAGAAGCCCCACGAACUUCCGCUUCUCCAAAGAAGAAAGACCUGUCCCUGGAGGAGAUCCAGAAGAAACUGGAGGCUGCCAACAGAGGAUUGAGCAUCA
B22: chr17:63968022:63968355:-|CDS|ENSG00000007314|control|control|control (ssRNA)
RNA: GGGAGUUCUACAGUCCGACGAUCGAAAAAGCUGUCGGAUGUGAUGAUCCUCACUGUCUUCUGCCUGAGCGUCUUUGCGCUGGUAGGACUGCAGCUCUUCAUGGGAAACCUGAGGCAGAAGUGUGUGCGCUGGCCCCCGCCGUUCAACAGAGGAUUGAGCAUCA

The binders below were run against MSI1 full-length (mouse, UniProt Q61474 1-362) (assay: nsRBNS (natural sequence RNA bind-n-seq); RBNS binding buffer (assumed for nsRBNS): 25 mM Tris pH 7.5, 150 mM KCl, 3 mM MgCl2, 0.01% Triton X-100, 500 ug/ml BSA, 20 U/ml SUPERase-In, 4 C; UNK is unkempt and MSI1 is Musashi-1; names of the RNAs are library labels; protein concentration not given here; high values mean tight binding).
UniProt Q61474, sequence (Q61474 whole entry): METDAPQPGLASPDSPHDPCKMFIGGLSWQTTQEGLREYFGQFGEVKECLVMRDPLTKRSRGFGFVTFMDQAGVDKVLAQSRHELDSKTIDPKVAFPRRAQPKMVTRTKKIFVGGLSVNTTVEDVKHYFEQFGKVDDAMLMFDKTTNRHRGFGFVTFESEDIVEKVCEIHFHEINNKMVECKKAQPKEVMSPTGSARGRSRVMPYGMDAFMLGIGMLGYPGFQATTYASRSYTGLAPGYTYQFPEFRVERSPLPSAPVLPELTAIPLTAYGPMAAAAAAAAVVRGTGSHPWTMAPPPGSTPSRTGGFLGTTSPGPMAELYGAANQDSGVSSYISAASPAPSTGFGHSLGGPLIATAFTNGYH

Binder | binding signal
B1 | 1.41 enrichment R
B2 | 0.362 enrichment R
B3 | 0.526 enrichment R
B4 | 56.8 enrichment R
B5 | 0.557 enrichment R
B6 | 0.87 enrichment R
B7 | 4.24 enrichment R
B8 | 0.385 enrichment R
B9 | 2.32 enrichment R
B10 | 0.374 enrichment R
B11 | 0.299 enrichment R
B12 | 0.44 enrichment R
B13 | 15.4 enrichment R
B14 | 0.406 enrichment R
B15 | 0.521 enrichment R
B16 | 0.736 enrichment R
B17 | 0.406 enrichment R
B18 | 0.408 enrichment R
B19 | 1.32 enrichment R
B20 | 0.578 enrichment R
B21 | 0.474 enrichment R
B22 | 0.38 enrichment R

— PMC12136788
